# The list shows a part of the results.
# B1: Nc3LysM (protein)
# chain: QFTVPPDTTAEPNTIKTCTWWHVAGSGDSCTSIASTYGITSEQFARWDMETTDSPKNPSVATACKLTVGNSYCIENNFGQDDPPTPSISSSTLIGTATTSTTASTTTGNGISTPTPIQEGMETATTTTSSGNGITTPTPTQAGMETVGNCDRFHLVKSGDQCGTIASTYGITLANFYSWNPAVGTSCQSLWLDTYVCVRTIGFVPPKTTTTTTKKPTSTTSAGGVATPTPTQPGMETVSGCKKFHKGRGNVSTVASGDQCGTIATRYGISLANFYSWNPAVGSSCQTLWLDYYVCVGR
# Experiments:
# Experiment in all cases: glycan array binding signal (z-score within array); higher = stronger binding
# Conditions in all cases: glycan notation: IUPAC condensed, linker removed
# [1] = target: GlcNAc(b1-2)Gal(b1-3)GalNAc
# Outline: (§1)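 Arrays were curated from the Consortium for Functional Glycomics database, 3228 in total, and kept only where the protein sequence was available. Binding is expressed as a within-array Z-score. This score was averaged across arrays of the same protein sequence at different concentrations or buffers and across linkers, and negative values can be read as non-binding.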
# [2] = target: GlcNAc(b1-2)Man(a1-3)[GlcNAc(b1-2)Man(a1-6)]Man(b1-4)GlcNAc(b1-4)GlcNAc
# Outline: as §1
# [3] = target: GlcNAc(b1-2)Man(a1-3)[GlcNAc(b1-2)Man(a1-6)]Man(b1-4)GlcNAc(b1-4)[Fuc(a1-6)]GlcNAc
# Outline: as §1
# [4] = target: GlcNAc(b1-2)Man(a1-3)[GlcNAc(b1-4)][GlcNAc(b1-2)Man(a1-6)]Man(b1-4)GlcNAc(b1-4)GlcNAc
# Outline: as §1
# [5] = target: GlcNAc(b1-2)Man(a1-3)[GlcNAc(b1-4)][GlcNAc(b1-2)Man(a1-6)]Man(b1-4)GlcNAc(b1-4)[Fuc(a1-6)]GlcNAc
# Outline: as §1
# [6] = target: GlcNAc(b1-2)[GlcNAc(b1-4)]Man(a1-3)[GlcNAc(b1-2)Man(a1-6)]Man(b1-4)GlcNAc(b1-4)GlcNAc
# Outline: as §1
# [7] = target: GlcNAc(b1-2)[GlcNAc(b1-4)]Man(a1-3)[GlcNAc(b1-4)][GlcNAc(b1-2)Man(a1-6)]Man(b1-4)GlcNAc(b1-4)GlcNAc
# Outline: as §1
# [8] = target: GlcNAc(b1-2)[GlcNAc(b1-4)]Man(a1-3)[GlcNAc(b1-4)][GlcNAc(b1-2)[GlcNAc(b1-6)]Man(a1-6)]Man(b1-4)GlcNAc(b1-4)GlcNAc
# Outline: as §1
# [9] = target: GlcNAc(b1-2)[GlcNAc(b1-4)]Man(a1-3)[GlcNAc(b1-4)][GlcNAc(b1-2)[GlcNAc(b1-6)]Man(a1-6)]Man(b1-4)GlcNAc(b1-4)[Fuc(a1-6)]GlcNAc
# Outline: as §1
# [10] = target: GlcNAc(b1-2)[GlcNAc(b1-6)]Man(a1-6)[GlcNAc(b1-2)Man(a1-3)]Man(b1-4)GlcNAc(b1-4)GlcNAc
# Outline: as §1
# [11] = target: GlcNAc(b1-2)[GlcNAc(b1-6)]Man(a1-6)[GlcNAc(b1-2)Man(a1-3)]Man(b1-4)GlcNAc(b1-4)[Fuc(a1-6)]GlcNAc
# Outline: as §1
# [12] = target: GlcNAc(b1-2)[GlcNAc(b1-6)]Man(a1-6)[GlcNAc(b1-4)][GlcNAc(b1-2)Man(a1-3)]Man(b1-4)GlcNAc(b1-4)GlcNAc
# Outline: as §1
# GlcNAc(b1-3)Fuc = target: GlcNAc(b1-3)Fuc
# Outline: as §1
# GlcNAc(b1-3)Gal = target: GlcNAc(b1-3)Gal
# Outline: as §1
# [13] = target: GlcNAc(b1-3)Gal(b1-3)GalNAc
# Outline: as §1
# GlcNAc(b1-3)Gal(b1-4)Glc = target: GlcNAc(b1-3)Gal(b1-4)Glc
# Outline: as §1
# [14] = target: GlcNAc(b1-3)Gal(b1-4)GlcNAc
# Outline: as §1
# [15] = target: GlcNAc(b1-3)Gal(b1-4)GlcNAc(b1-2)Man(a1-3)[GlcNAc(b1-3)Gal(b1-4)GlcNAc(b1-2)Man(a1-6)]Man(b1-4)GlcNAc(b1-4)GlcNAc
# Outline: as §1
# [16] = target: GlcNAc(b1-3)Gal(b1-4)GlcNAc(b1-2)Man(a1-3)[GlcNAc(b1-3)Gal(b1-4)GlcNAc(b1-2)Man(a1-6)]Man(b1-4)GlcNAc(b1-4)[Fuc(a1-6)]GlcNAc
# Outline: as §1
# [17] = target: GlcNAc(b1-3)Gal(b1-4)GlcNAc(b1-2)[GlcNAc(b1-3)Gal(b1-4)GlcNAc(b1-6)]Man(a1-6)[GlcNAc(b1-3)Gal(b1-4)GlcNAc(b1-2)Man(a1-3)]Man(b1-4)GlcNAc(b1-4)GlcNAc
# Outline: as §1
# [18] = target: GlcNAc(b1-3)Gal(b1-4)GlcNAc(b1-3)Gal(b1-4)GlcNAc
# Outline: as §1
# [19] = target: GlcNAc(b1-3)Gal(b1-4)GlcNAc(b1-3)Gal(b1-4)GlcNAc(b1-2)Man(a1-3)[GlcNAc(b1-3)Gal(b1-4)GlcNAc(b1-3)Gal(b1-4)GlcNAc(b1-2)Man(a1-6)]Man(b1-4)GlcNAc(b1-4)GlcNAc
# Outline: as §1
# [20] = target: GlcNAc(b1-3)Gal(b1-4)GlcNAc(b1-3)Gal(b1-4)GlcNAc(b1-2)Man(a1-3)[GlcNAc(b1-3)Gal(b1-4)GlcNAc(b1-3)Gal(b1-4)GlcNAc(b1-2)Man(a1-6)]Man(b1-4)GlcNAc(b1-4)[Fuc(a1-6)]GlcNAc
# Outline: as §1
# [21] = target: GlcNAc(b1-3)Gal(b1-4)GlcNAc(b1-3)Gal(b1-4)GlcNAc(b1-2)[GlcNAc(b1-3)Gal(b1-4)GlcNAc(b1-3)Gal(b1-4)GlcNAc(b1-6)]Man(a1-6)[GlcNAc(b1-3)Gal(b1-4)GlcNAc(b1-3)Gal(b1-4)GlcNAc(b1-2)Man(a1-3)]Man(b1-4)GlcNAc(b1-4)[Fuc(a1-6)]GlcNAc
# Outline: as §1
# [22] = target: GlcNAc(b1-3)Gal(b1-4)GlcNAc(b1-3)Gal(b1-4)GlcNAc(b1-3)Gal(b1-4)GlcNAc(b1-2)Man(a1-3)[GlcNAc(b1-3)Gal(b1-4)GlcNAc(b1-3)Gal(b1-4)GlcNAc(b1-3)Gal(b1-4)GlcNAc(b1-2)Man(a1-6)]Man(b1-4)GlcNAc(b1-4)GlcNAc
# Outline: as §1
# [23] = target: GlcNAc(b1-3)Gal(b1-4)GlcNAc(b1-3)Gal(b1-4)GlcNAc(b1-3)Gal(b1-4)GlcNAc(b1-2)Man(a1-3)[GlcNAc(b1-3)Gal(b1-4)GlcNAc(b1-3)Gal(b1-4)GlcNAc(b1-3)Gal(b1-4)GlcNAc(b1-2)Man(a1-6)]Man(b1-4)GlcNAc(b1-4)[Fuc(a1-6)]GlcNAc
# Outline: as §1
# [24] = target: GlcNAc(b1-3)Gal(b1-4)GlcNAc(b1-3)Gal(b1-4)GlcNAc(b1-3)Gal(b1-4)GlcNAc(b1-2)[GlcNAc(b1-3)Gal(b1-4)GlcNAc(b1-3)Gal(b1-4)GlcNAc(b1-3)Gal(b1-4)GlcNAc(b1-6)]Man(a1-6)[GlcNAc(b1-3)Gal(b1-4)GlcNAc(b1-3)Gal(b1-4)GlcNAc(b1-3)Gal(b1-4)GlcNAc(b1-2)Man(a1-3)]Man(b1-4)GlcNAc(b1-4)[Fuc(a1-6)]GlcNAc
# Outline: as §1
# [25] = target: GlcNAc(b1-3)Gal(b1-4)GlcNAc(b1-3)Gal(b1-4)GlcNAc(b1-3)Gal(b1-4)GlcNAc(b1-3)Gal(b1-4)GlcNAc(b1-2)Man(a1-3)[GlcNAc(b1-3)Gal(b1-4)GlcNAc(b1-3)Gal(b1-4)GlcNAc(b1-3)Gal(b1-4)GlcNAc(b1-3)Gal(b1-4)GlcNAc(b1-2)Man(a1-6)]Man(b1-4)GlcNAc(b1-4)GlcNAc
# Outline: as §1
# [26] = target: GlcNAc(b1-3)Gal(b1-4)GlcNAc(b1-3)Gal(b1-4)GlcNAc(b1-3)Gal(b1-4)GlcNAc(b1-3)Gal(b1-4)GlcNAc(b1-2)Man(a1-3)[GlcNAc(b1-3)Gal(b1-4)GlcNAc(b1-3)Gal(b1-4)GlcNAc(b1-3)Gal(b1-4)GlcNAc(b1-3)Gal(b1-4)GlcNAc(b1-2)Man(a1-6)]Man(b1-4)GlcNAc(b1-4)[Fuc(a1-6)]GlcNAc
# Outline: as §1
# [27] = target: GlcNAc(b1-3)Gal(b1-4)GlcNAc(b1-3)Gal(b1-4)GlcNAc(b1-3)Gal(b1-4)GlcNAc(b1-3)Gal(b1-4)GlcNAc(b1-2)[GlcNAc(b1-3)Gal(b1-4)GlcNAc(b1-3)Gal(b1-4)GlcNAc(b1-3)Gal(b1-4)GlcNAc(b1-3)Gal(b1-4)GlcNAc(b1-6)]Man(a1-6)[GlcNAc(b1-3)Gal(b1-4)GlcNAc(b1-3)Gal(b1-4)GlcNAc(b1-3)Gal(b1-4)GlcNAc(b1-3)Gal(b1-4)GlcNAc(b1-2)Man(a1-3)]Man(b1-4)GlcNAc(b1-4)[Fuc(a1-6)]GlcNAc
# Outline: as §1
# [28] = target: GlcNAc(b1-3)Gal(b1-4)GlcNAc(b1-3)Gal(b1-4)GlcNAc(b1-3)GalNAc
# Outline: as §1
# [29] = target: GlcNAc(b1-3)Gal(b1-4)GlcNAc(b1-3)GalNAc
# Outline: as §1
# [30] = target: GlcNAc(b1-3)Gal(b1-4)GlcNAc(b1-3)[GlcNAc(b1-3)Gal(b1-4)GlcNAc(b1-3)]GalNAc
# Outline: as §1
# [31] = target: GlcNAc(b1-3)Gal(b1-4)GlcNAc(b1-6)[Gal(b1-3)]GalNAc
# Outline: as §1
# [32] = target: GlcNAc(b1-3)Gal(b1-4)GlcNAc(b1-6)[GlcNAc(b1-3)Gal(b1-3)]GalNAc
# Outline: as §1
# [33] = target: GlcNAc(b1-3)Gal(b1-4)GlcNAc(b1-6)[GlcNAc(b1-3)]Gal(b1-4)GlcNAc
# Outline: as §1
# GlcNAc(b1-3)GalNAc = target: GlcNAc(b1-3)GalNAc
# Outline: as §1
binder,measurement,setting,value
B1,glycan array binding signal (z-score),[1],-0.115
same,glycan array binding signal (z-score),[2],-0.024
same,glycan array binding signal (z-score),[3],0.106
same,glycan array binding signal (z-score),[4],-0.227
same,glycan array binding signal (z-score),[5],-0.063
same,glycan array binding signal (z-score),[6],-0.147
same,glycan array binding signal (z-score),[7],0.034
same,glycan array binding signal (z-score),[8],-0.326
same,glycan array binding signal (z-score),[9],-0.023
same,glycan array binding signal (z-score),[10],-0.148
same,glycan array binding signal (z-score),[11],-0.037
same,glycan array binding signal (z-score),[12],-0.189
same,glycan array binding signal (z-score),GlcNAc(b1-3)Fuc,-0.168
same,glycan array binding signal (z-score),GlcNAc(b1-3)Gal,-0.143
same,glycan array binding signal (z-score),[13],0.075
same,glycan array binding signal (z-score),GlcNAc(b1-3)Gal(b1-4)Glc,-0.132
same,glycan array binding signal (z-score),[14],-0.033
same,glycan array binding signal (z-score),[15],-0.218
same,glycan array binding signal (z-score),[16],0.028
same,glycan array binding signal (z-score),[17],-0.201
same,glycan array binding signal (z-score),[18],-0.131
same,glycan array binding signal (z-score),[19],0.008
same,glycan array binding signal (z-score),[20],0.093
same,glycan array binding signal (z-score),[21],-0.011
same,glycan array binding signal (z-score),[22],-0.013
same,glycan array binding signal (z-score),[23],0.146
same,glycan array binding signal (z-score),[24],0.072
same,glycan array binding signal (z-score),[25],-0.036
same,glycan array binding signal (z-score),[26],-0.089
same,glycan array binding signal (z-score),[27],0.075
same,glycan array binding signal (z-score),[28],0.002
same,glycan array binding signal (z-score),[29],-0.022
same,glycan array binding signal (z-score),[30],-0.308
same,glycan array binding signal (z-score),[31],-0.184
same,glycan array binding signal (z-score),[32],-0.251
same,glycan array binding signal (z-score),[33],0.184
same,glycan array binding signal (z-score),GlcNAc(b1-3)GalNAc,0.056

# From the supplement of paper PMC8728848
